# Experimental data published in PubChem BioAssay AID588795 (National Center for Advancing Translational Sciences (NCATS), 2011).
# The whole screen tested about 390,000 compounds, of which about 1,400 (0.36%) were called active. This list was built around the results that the source calls inconclusive (neither active nor inactive); the mix of calls is not that of the screen. Calls follow the shape of the dose curve; as a rule, active = well fitted inhibition curve with a large enough effect; inconclusive = small, poorly fitted or top-dose-only effect; inactive = no such curve, though single readings can be large or run the other way. Potencies beside an inconclusive call are fits to weak or partial responses and may not hold up.
# Target: Flap endonuclease 1 (Homo sapiens) (UniProt P39748)
# Assay: qHTS Assay for the Inhibitors of Human Flap endonuclease 1 (FEN1). Also: nearly all actives have a fitted effect of over 65% in size.
# Details: Recombinant FEN1 flap cleavage, fluorescence, 15 min; series mostly up to 114 µM
# Text: The major human flap endonuclease FEN1 is an efficient structure-specific enzyme that recognizes and cleaves a 5'-unannealed DNA flap. It belongs to the RAD2 family nucleases, which are involved in DNA metabolism and are highly conserved in prokaryotes and eukaryotes. FEN1 is a key enzyme in DNA replication, repair and maintenance of genomic stability. 5'-flap removal by FEN1 is critical for Okazaki fragment processing during lagging strand DNA synthesis, long-patch base excision repair (LP BER), and regulating or facilitating recombination events. […] Deletion of the yeast FEN1 gene, i.e. rad27, results in an increased frequency of short DNA (3-32 bp) repeats, micro- and mini-satellite formation, trinucleotide repeat expansion, spontaneous recombination events, and a severe growth defect in association with cell cycle arrest in late S/G2 phase. […] Cells from fen1-/- blastocysts show increased apoptotic cell death after ionizing radiation treatment, and chicken cells lacking the fen1 gene are hypersensitive to DNA alkylating agents, e.g. methylmethane sulfonate (MMS) and N-methyl-N'-nitro-N-nitrosoguanidine (MNNG), as well as hydrogen peroxide.
# NIH Chemical Genomics Center [NCGC]
# NIH Molecular Libraries Probe Centers Network [MLPCN]
# Assay Submitter (PI): David Wilson, National Institute of Aging
# Three uL of reagents (buffer in column 3 and 4 as negative control and 10 nM FEN1 in columns 1, 2, and 5-48) were dispensed into 1,536-well black solid-bottomed plate. Compounds (23 nL) were transferred via Kalypsys pin tool equipped with 1536-pin array (10 nL slotted pins, V&P Scientific, San Diego, CA). The plates were then incubated for 15 min at room temperature, and 1 uL substrate (50 nM final concentration) were added to start the reaction read twice at 0 min read and 15 min on ViewLux reader. Throughout the screen, reagent bottle and all liquid lines were chilled and made light-tight to minimize reagent degradation. All screening operations were performed on a fully integrated robotic system (Kalypsys, San Diego, CA) containing one RX-130 and two RX-90 anthropomorphic robotic arms (Staubli, Duncan, SC). Library plates were screened starting from the lowest and proceeding to the highest concentration, and a "double-dipping" step of the highest concentration was required to access higher concentrations of compounds. Vehicle-only plates, with DMSO being pin-transferred to the entire column 5-48 compound area, were inserted uniformly at the beginning and the end of each library in order to monitor for and record any shifts in the background, which can be affected by reagent dispensers or loss in enzyme activity overtime. Screening data was corrected, normalized, and concentration-effect relationships were derived by using publicly-available curve fitting algorithms developed in-house (http://ncgc.nih.gov/pub/openhts). A four parameter Hill equation was fitted to the concentration-response data by minimizing the residual error between the modeled and observed responses.
# Potency is read from the fitted curve at half-maximal effect; tags tell the direction and shape of the fitted curve.
# Chain of UniProt P39748 (P39748 whole entry, looked up): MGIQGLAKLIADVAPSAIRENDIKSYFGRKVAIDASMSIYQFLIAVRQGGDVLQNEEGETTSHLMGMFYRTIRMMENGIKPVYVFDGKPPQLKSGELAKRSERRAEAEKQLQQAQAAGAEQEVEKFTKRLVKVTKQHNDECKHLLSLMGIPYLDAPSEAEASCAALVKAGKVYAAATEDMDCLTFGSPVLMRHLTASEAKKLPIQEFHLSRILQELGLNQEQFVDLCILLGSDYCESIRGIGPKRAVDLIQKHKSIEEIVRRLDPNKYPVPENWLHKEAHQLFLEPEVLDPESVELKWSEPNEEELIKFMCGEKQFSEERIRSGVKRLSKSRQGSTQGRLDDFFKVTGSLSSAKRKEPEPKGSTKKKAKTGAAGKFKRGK
row,Compound,Potency
1,CCOC(=O)C1=C(N)Oc2ccc3ccccc3c2C1c1cccnc1 (stereo unspecified),"inconclusive: 79.4 µM [inhibitor, partial curve, poor fit]"
2,N#Cc1c([N+](=O)[O-])cc([N+](=O)[O-])cc1S(=O)(=O)Cc1ccccc1,active: 79.4 µM
3,Cc1ccc(NC(=O)NCCOCCn2c(=O)oc3ccccc32)c(C)c1,inactive
4,O=C(CSc1ccccc1)N1CCc2c([nH]c3ccccc23)C1c1ccc(Cl)cc1 (stereo unspecified),"inconclusive: 28.2 µM [inhibitor, partial curve, poor fit]"
5,Nc1ccc(N2CCOCC2)c2nonc12,"inconclusive: 7.94 µM [inhibitor, partial curve, poor fit]"
6,Cc1cc([N+](=O)[O-])ccc1-c1ccc(C2Nc3ccccc3C(=O)N2O)o1 (stereo unspecified),"inconclusive: 44.7 µM [inhibitor, partial curve, poor fit]"
7,CC(=O)NCCCN(Cc1ccc(Cl)c(Cl)c1)c1ccc(Br)cn1,"inconclusive: 56.2 µM [inhibitor, partial curve, poor fit]"
8,O=C(c1ccc(-c2cc(O)c3ncccc3c2)cc1)N1CCNCC1,"inconclusive: 20 µM [inhibitor, full curve]"
9,CC[n+]1c(/C=C/C=C/N(C(C)=O)c2ccccc2)sc2cc(OC)ccc21,active: 50.1 µM
10,COc1ccccc1-c1cc(-c2ccc(O)cc2)nc(N)c1C#N,inactive
11,CN1CCN(c2oc(COc3ccc(-c4ccccc4)cc3)nc2C#N)CC1,"inconclusive: 79.4 µM [inhibitor, partial curve, poor fit]"
12,O=C(/C=C/c1ccc(Cl)cc1)NC(=S)Nc1ccc(C(=O)O)cc1,inactive
13,CCc1ccc2c(c1)C(NC(C)=O)C(=O)N2CCN1CCOCC1 (stereo unspecified),"inconclusive: 89.1 µM [inhibitor, partial curve]"
14,O=C(NN=C1CCCC1)c1cccc(O)c1,inactive
15,O=C(O)c1ccc(-c2ccc(/C=c3/sc4nc5ccccc5n4c3=O)o2)cc1Cl,active: 12.6 µM
16,O=C1NN(c2ccccc2)C(=O)/C1=C/c1ccc(Sc2cccc3ccccc23)o1,"inconclusive: 89.1 µM [inhibitor, single point]"
17,CCc1ccccc1NC(=O)CN1C(=O)CCSc2ccc(S(=O)(=O)N3CCCC3)cc21,inactive
18,COc1ccc2c(c1)c(/C=N/Nc1nc3ccccc3[nH]1)c(C)n2C,inactive
19,CCCn1cc(S(=O)(=O)c2ccc(Cl)cc2)c(=O)c2cc(OC)ccc21,"inconclusive: 89.1 µM [inhibitor, single point]"
20,O=S(=O)(/N=S1/CC=CCN1S(=O)(=O)c1ccccc1)c1ccccc1 (stereo unspecified),"inconclusive: 79.4 µM [inhibitor, partial curve, poor fit]"
21,O=C(NCCC1=CCCCC1)C(=O)NCc1ccccc1,inactive
22,COc1ccc(C(=O)Oc2c(Sc3ccc(C)cc3)c(C)nn2C(C)(C)C)cc1OC,"inconclusive: 56.2 µM [inhibitor, partial curve, poor fit]"

row,Compound,Potency
1,CC(C)(C)c1cc(-c2nc(N)nc(N)n2)c(O)c(C(C)(C)C)c1,"inconclusive: 44.7 µM [inhibitor, partial curve, poor fit]"
2,Oc1cc(-c2ccncc2)cc2cccnc12,"inconclusive: 79.4 µM [inhibitor, partial curve]"
3,O=C(/C=C/c1ccc([N+](=O)[O-])cc1)Oc1ccc(/C=N/NC(=O)c2ccncc2)cc1,"inconclusive: 22.4 µM [inhibitor, full curve, poor fit]"
4,CCOCc1[nH]c(=S)[nH]c(=O)c1Cc1ccc(OCC(C)C)cc1,inactive
5,O=C1NC(=Nc2ccccc2)S/C1=C\C=C\c1ccco1,"inconclusive: 56.2 µM [inhibitor, partial curve]"
6,COc1ccc(OC)c(-c2cc(C(=O)Nc3c(C)nn(Cc4ccccc4C)c3C)no2)c1,"inconclusive: 79.4 µM [inhibitor, partial curve, poor fit]"
7,CN(CCOc1ccccc1)CC(=O)Nc1cccc(Br)c1,"inconclusive: 79.4 µM [inhibitor, partial curve, poor fit]"
8,Cc1coc2cc3oc(=O)c(CCC(=O)NCc4ccccc4Cl)c(C)c3cc12,"inconclusive: 89.1 µM [inhibitor, single point]"
9,O=C(CN(c1ccc(Cl)c(C(F)(F)F)c1)S(=O)(=O)c1ccccc1)Nc1cccnc1,"inconclusive: 89.1 µM [inhibitor, partial curve, poor fit]"
10,O=C(CSc1nnc(-c2c[nH]c3ccccc23)n1CC1CCCO1)Nc1ccc2c(c1)OCCO2 (stereo unspecified),inactive
11,Cc1ccc(SCCN2CCC(C(C)(C)C)CCC2=O)cc1 (stereo unspecified),"inconclusive: 56.2 µM [inhibitor, partial curve, poor fit]"
12,Cc1nc2ncccn2c1-c1csc(Nc2ccccc2)n1,"inconclusive: 44.7 µM [inhibitor, partial curve, poor fit]"
13,CCOC(=O)c1ccc2nc(C)cc(Nc3ccc(OC(C)C)cc3)c2c1,"inconclusive: 39.8 µM [inhibitor, partial curve, poor fit]"
14,COc1cc(OC)c(C2C(C#N)=C(N)OC3=C2C(=O)CC(C)(C)C3)cc1OC (stereo unspecified),inactive
15,CCC(CC)C(=O)Nc1ccccc1SCc1cc(=O)c2cccc(C)c2[nH]1,inactive
16,Oc1ccccc1Nc1nc(NCC2CCCO2)c2ccccc2n1 (stereo unspecified),"inconclusive: 89.1 µM [inhibitor, partial curve, poor fit]"
17,Nc1ccc2ncccc2c1N,"inconclusive: 14.1 µM [inhibitor, full curve]"
18,CCOC(=O)c1c(NS(=O)(=O)c2ccc(Br)cc2)sc2c1CCC2,inactive
19,Cc1ccc(-c2noc(-c3ccc(NCc4cccnc4)c([N+](=O)[O-])c3)n2)cc1,inactive
20,S=c1[nH]c2cc(Br)cnc2[nH]1,inactive
21,Cc1ccccc1-n1nc(CO)c(C(=O)NCC(c2ccccc2)c2ccccc2)n1,inactive
22,NC(=O)N=Nc1c2[nH]c3ccccc3nc-2c2ccccc12,active: 10 µM

row,Compound,Potency
1,COc1ccccc1OCc1nnc(SCC(=O)NCc2ccco2)n1Cc1ccco1,"inconclusive: 50.1 µM [inhibitor, partial curve, poor fit]"
2,O=C1C=C(c2cc(C(F)(F)F)cc(C(F)(F)F)c2)C[C@@H](c2ccc3c(c2)OCO3)C1,"inconclusive: 35.5 µM [inhibitor, partial curve, poor fit]"
3,O=C(N/N=C/c1cc(Br)cs1)c1c[nH]c2ccccc12,"inconclusive: 50.1 µM [inhibitor, partial curve, poor fit]"
4,CC1(c2nnc(Cc3ccccc3)o2)CC(c2ccc(OC(F)(F)F)cc2)=NO1 (stereo unspecified),"inconclusive: 89.1 µM [inhibitor, partial curve, poor fit]"
5,COc1cc(OC)cc(C(=O)Nc2ccc(-c3nc4cc(C(C)C)ccc4o3)cc2)c1,"inconclusive: 79.4 µM [inhibitor, partial curve, poor fit]"
6,CSc1ccc(C(c2c(C)[nH][nH]c2=O)c2c(C)[nH][nH]c2=O)cc1,inactive
7,Cc1cc(/C=N/n2c(COc3ccccc3)nc3ccccc3c2=O)c(O)c([N+](=O)[O-])c1,"inconclusive: 44.7 µM [inhibitor, partial curve, poor fit]"
8,CCOC(=O)c1ccc(N2C(=O)c3n[nH]c(-c4cccs4)c3C2c2ccc(CC)cc2)cc1 (stereo unspecified),"inconclusive: 79.4 µM [inhibitor, partial curve, poor fit]"
9,CCOC(=O)C1=C(CSc2nc(-c3ccccc3)ccc2C#N)OC(N)=C(C#N)C1c1cccnc1 (stereo unspecified),"inconclusive: 79.4 µM [inhibitor, partial curve, poor fit]"
10,COC(=O)c1cc(Cl)ccc1NC(=O)CSc1ncc(S(=O)(=O)c2ccc(Br)cc2)c(=O)[nH]1,"inconclusive: 70.8 µM [inhibitor, partial curve]"
11,CC(OC(=O)/C(C#N)=C/c1ccc(N(C)C)cc1)C(=O)N(C)c1ccccc1 (stereo unspecified),active: 50.1 µM
12,COc1ccc(C(=O)COC(=O)CCCC(=O)Nc2cc(C(F)(F)F)ccc2Cl)cc1,"inconclusive: 79.4 µM [inhibitor, partial curve, poor fit]"
13,CN1CCCC1CCNc1ccc2oc3ccccc3c(=O)c2c1 (stereo unspecified),"inconclusive: 44.7 µM [inhibitor, partial curve]"
14,Nc1ccc2nc(-c3ccccc3)[nH]c2c1,inactive
15,CCCc1nc2oc3cc(OC)ccc3c(=O)c2c(=O)n1Cc1ccco1,inactive
16,CCOC(=O)C1CCN(C(=O)CN(c2cc(OC)ccc2OC)S(=O)(=O)c2ccccc2)CC1,"inconclusive: 31.6 µM [inhibitor, single point]"
17,CCN1/C(=C/c2ccc3cc(C)ccc3[n+]2CC)Sc2ccccc21,"inconclusive: 12.6 µM [inhibitor, partial curve, poor fit]"
18,c1ccc2c(c1)[nH]c1c(NCC3CCCO3)ncnc12 (stereo unspecified),"inconclusive: 79.4 µM [inhibitor, partial curve, poor fit]"
19,Cn1c(N)c(C(=O)Nc2ccc(-c3ccccc3)cc2)sc1=S,"inconclusive: 50.1 µM [inhibitor, partial curve, poor fit]"
20,CCN1C(=O)c2ccccc2Sc2ccc(NC(=O)Nc3ccc(C(C)=O)cc3)cc21,"inconclusive: 44.7 µM [inhibitor, partial curve]"
21,Nc1cc(C(=O)O)ccc1N1CCCCC1,inactive
22,O=C(OCc1csc(Nc2ccccc2)n1)c1ccc(Cl)cc1,"inconclusive: 11.2 µM [inhibitor, partial curve, poor fit]"
